{"source": "paper PMC4336329", "about": "(PLoS ONE, 2015)", "note": "Among all 310,000 compounds or so, about 14,000 (4.5%) showed an effect of 50% or more. The effect is printed as a negative number. Some of the results follow.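 Note: peak tail current of the secondary pulse compared with the same well before compound.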"}
{"target": "human ether-à-go-go-related gene (hERG) potassium channel (human, UniProt Q12809)", "sequence (Q12809 whole entry, looked up)": "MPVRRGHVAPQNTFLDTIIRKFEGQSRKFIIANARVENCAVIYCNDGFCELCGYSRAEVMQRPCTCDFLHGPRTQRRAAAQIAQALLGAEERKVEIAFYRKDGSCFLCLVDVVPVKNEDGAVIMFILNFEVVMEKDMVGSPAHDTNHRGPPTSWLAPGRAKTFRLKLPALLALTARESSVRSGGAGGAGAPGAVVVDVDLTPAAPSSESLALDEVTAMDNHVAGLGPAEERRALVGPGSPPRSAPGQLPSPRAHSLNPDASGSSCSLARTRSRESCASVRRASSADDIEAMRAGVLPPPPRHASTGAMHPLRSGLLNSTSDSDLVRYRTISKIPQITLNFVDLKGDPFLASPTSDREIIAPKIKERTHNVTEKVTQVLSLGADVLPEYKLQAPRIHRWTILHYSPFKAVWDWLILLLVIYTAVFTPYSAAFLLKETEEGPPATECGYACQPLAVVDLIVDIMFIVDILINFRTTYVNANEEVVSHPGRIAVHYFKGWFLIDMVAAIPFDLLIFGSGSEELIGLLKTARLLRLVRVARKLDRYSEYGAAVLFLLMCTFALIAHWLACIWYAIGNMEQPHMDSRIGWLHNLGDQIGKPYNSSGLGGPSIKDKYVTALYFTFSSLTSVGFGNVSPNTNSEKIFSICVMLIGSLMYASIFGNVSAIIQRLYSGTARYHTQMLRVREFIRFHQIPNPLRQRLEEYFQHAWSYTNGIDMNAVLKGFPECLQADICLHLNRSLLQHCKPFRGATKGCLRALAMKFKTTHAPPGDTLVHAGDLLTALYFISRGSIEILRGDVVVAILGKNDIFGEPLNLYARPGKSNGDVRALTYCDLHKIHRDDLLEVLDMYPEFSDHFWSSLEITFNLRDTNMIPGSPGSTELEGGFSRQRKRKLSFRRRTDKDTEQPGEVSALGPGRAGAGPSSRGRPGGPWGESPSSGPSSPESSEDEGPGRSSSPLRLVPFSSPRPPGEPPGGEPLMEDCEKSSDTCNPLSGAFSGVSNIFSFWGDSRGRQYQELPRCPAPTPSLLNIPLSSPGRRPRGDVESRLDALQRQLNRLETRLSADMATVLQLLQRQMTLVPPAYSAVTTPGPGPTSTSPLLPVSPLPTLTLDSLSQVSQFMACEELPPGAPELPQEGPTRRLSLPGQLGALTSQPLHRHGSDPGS", "assay": "primary screen, population patch clamp on CHO cells stably expressing hERG", "units": {"hERG current change (%, negative = inhibition) at 10uM": "%"}}
{"smiles": "O=C(CN1C(=O)NC2(CCc3ccccc32)C1=O)Nc1ccccc1C(F)(F)F", "note": "(centres unmarked)", "hERG current change (%, negative = inhibition) at 10uM": 6.12}
{"smiles": "CS(=O)(=O)N1CCN(c2ccccc2NC(=O)c2ccc(-c3ccc(Br)cc3)o2)CC1", "hERG current change (%, negative = inhibition) at 10uM": -5.6}
{"smiles": "CN(C)S(=O)(=O)c1ccc(C(=O)NCC(=O)N/N=C/c2cccs2)cc1", "hERG current change (%, negative = inhibition) at 10uM": 15.7}
{"smiles": "CCn1c(NC(=O)C2CCCCC2)nc2ccccc21", "hERG current change (%, negative = inhibition) at 10uM": 8.36}
{"smiles": "Br.NC1(N)OC(CN2C(=O)c3ccccc3C2=O)CS1", "note": "(centres unmarked)", "hERG current change (%, negative = inhibition) at 10uM": -5.75}
{"smiles": "COc1cccc(C(=O)NCC2(c3ccc(OC)c(OC)c3)CCCC2)c1", "hERG current change (%, negative = inhibition) at 10uM": -8.6}
{"smiles": "CN(C)c1ccc(CCc2ccc(N)cc2)cc1", "hERG current change (%, negative = inhibition) at 10uM": 19.9}
{"smiles": "Cc1ccc(OCc2nnc(NC(=O)c3cccnc3)s2)cc1", "hERG current change (%, negative = inhibition) at 10uM": -13.6}
{"smiles": "COc1ccc(S(=O)(=O)NCC(=O)N(CC2CCCO2)C(C(=O)NC2CCCC2)C(C)C)cc1", "note": "(centres unmarked)", "hERG current change (%, negative = inhibition) at 10uM": -30.4}
{"smiles": "CCCN(CCC)CCNC(=O)C1(O)c2ccccc2NC(=O)N1c1cccc(OC)c1", "note": "(centres unmarked)", "hERG current change (%, negative = inhibition) at 10uM": 18.3}
{"smiles": "CCSc1nnc(CCNS(=O)(=O)c2ccc(C(C)=O)cc2)n1C", "hERG current change (%, negative = inhibition) at 10uM": -1.22}
{"smiles": "CCOC(=O)Cn1cc(C(=O)c2ccco2)c2ccccc21", "hERG current change (%, negative = inhibition) at 10uM": -4.02}
{"smiles": "CCCCN(C(=O)Cc1cccs1)c1nnc(-c2cccnc2)s1", "hERG current change (%, negative = inhibition) at 10uM": -6.04}
{"smiles": "CCCCn1c(N)c(N(CC(C)C)C(=O)CN2C(=O)NC3(CC(C)CC(C)(C)C3)C2=O)c(=O)[nH]c1=O", "note": "(centres unmarked)", "hERG current change (%, negative = inhibition) at 10uM": -5.5}
{"smiles": "CCCN1CCN(S(=O)(=O)c2cc3c(cc2C)NC(=O)CO3)CC1", "hERG current change (%, negative = inhibition) at 10uM": -21.6}
{"smiles": "CN(C)c1ccc(/C=C/C=C/c2sc3ccccc3[n+]2C)cc1.[O-][Cl+3]([O-])([O-])[O-]", "hERG current change (%, negative = inhibition) at 10uM": -42.6}
{"smiles": "COc1cc(Cl)c(C)cc1NC(=O)[C@@H]1CCCN1C(=O)c1cccs1", "hERG current change (%, negative = inhibition) at 10uM": 4.64}
{"smiles": "O=C(OCC(=O)N1CCc2ccccc2C1)c1ccc(Cl)c([N+](=O)[O-])c1", "hERG current change (%, negative = inhibition) at 10uM": -20.7}
{"smiles": "Cc1ccccc1Cn1ccc(NC(=O)c2cc3ncc(Br)cn3n2)n1", "hERG current change (%, negative = inhibition) at 10uM": 5.35}
{"smiles": "O=C(Nc1ccccc1F)C(=Cc1sc(N2CCOCC2)nc1-c1ccccc1)C(=O)Nc1ccccc1F", "hERG current change (%, negative = inhibition) at 10uM": 23.1}
{"smiles": "Cc1ccc(-c2cccc(C(=O)NCCc3ccccc3)n2)c2ccccc12", "hERG current change (%, negative = inhibition) at 10uM": 8.21}
{"smiles": "Cn1c(N/N=C/c2cc3ccccc3nc2Cl)nc2ccccc21", "hERG current change (%, negative = inhibition) at 10uM": 11.5}
{"smiles": "CCCCOC(=O)c1ccccc1N1C(=O)C2C3CCC(C3)C2C1=O", "note": "(centres unmarked)", "hERG current change (%, negative = inhibition) at 10uM": 11.2}
